Measured values published in the supplement of paper PMC3334620.
In all, about 33,000 sequences were measured (“E-score (-0.5 to 0.5)”: median about -0.021, highest 2% from about 0.32 on). Some of the results follow.

The sequences below were run against T1, Zap1 (UniProt P47043) (assay: PBM E-score (8-mer binding enrichment) (E-score (-0.5 to 0.5)); higher = stronger / more preferred TF binding; most listed sequences are background and not binding sites). Conditions: protein concentration: 200 nM; construct: GST-full length.
T1 sequence: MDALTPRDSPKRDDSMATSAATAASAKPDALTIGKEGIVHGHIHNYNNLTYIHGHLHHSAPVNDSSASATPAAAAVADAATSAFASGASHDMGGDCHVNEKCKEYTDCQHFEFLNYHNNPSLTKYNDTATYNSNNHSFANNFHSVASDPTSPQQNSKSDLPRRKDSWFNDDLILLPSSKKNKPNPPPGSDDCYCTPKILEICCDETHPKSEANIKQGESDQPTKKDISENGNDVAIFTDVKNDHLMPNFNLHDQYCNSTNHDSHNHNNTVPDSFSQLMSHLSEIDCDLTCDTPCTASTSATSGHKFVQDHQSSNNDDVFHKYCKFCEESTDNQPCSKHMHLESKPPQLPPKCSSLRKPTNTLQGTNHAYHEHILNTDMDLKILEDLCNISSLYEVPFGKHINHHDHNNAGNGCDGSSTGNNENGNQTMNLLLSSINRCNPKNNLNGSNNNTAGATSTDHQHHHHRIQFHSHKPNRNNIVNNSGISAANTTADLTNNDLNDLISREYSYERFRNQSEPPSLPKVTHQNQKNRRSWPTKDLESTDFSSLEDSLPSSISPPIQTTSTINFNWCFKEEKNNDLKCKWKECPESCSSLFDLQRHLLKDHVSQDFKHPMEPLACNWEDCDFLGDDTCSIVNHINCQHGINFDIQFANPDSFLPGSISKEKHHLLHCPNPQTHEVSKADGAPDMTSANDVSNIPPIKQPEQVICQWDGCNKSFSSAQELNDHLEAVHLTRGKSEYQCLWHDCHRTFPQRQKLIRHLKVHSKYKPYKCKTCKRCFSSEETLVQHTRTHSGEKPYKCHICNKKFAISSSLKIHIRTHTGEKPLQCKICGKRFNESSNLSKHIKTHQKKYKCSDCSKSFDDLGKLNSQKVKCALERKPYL
Description: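 Universal 'all 10-mer' protein binding microarrays (Agilent AMADID 015681) probed with GST-tagged S. cerevisiae TFs (full-length or DBD) made by in vitro transcription/translation (PURExpress), about 100-200 nM. Bound TF was detected with fluorescent anti-GST. Each ungapped 8-mer (which stands for itself and its reverse complement) is scored by the PBM enrichment score (E-score), a modified Wilcoxon-Mann-Whitney statistic from -0.5 to +0.5, computed with the Universal PBM Analysis Suite. Scale: above 0.35 generally sequence-specific binding.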

Sequence | PBM E-score
GTGATTGA | 0.198
AGGCATGC | -0.114
CGCGAGAC | 0.0382
CCCATGTA | -0.00257
AAGGAAGA | -0.243
ACCTGCTG | 0.0923
AAACCCGA | 0.264
TCCATGGA | 0.223
GAGATAGA | -0.203
GGCCTCTA | 0.0229
TAGTGTAA | 0.0751
ATCAAGTG | 0.0889
TATGCCCA | -0.0534
AAATGCAC | -0.0899
CCATATTA | 0.159
GTCGGGAA | -0.157
CCCCCGTA | -0.263
CGGGCAAG | -0.146
CTACTGAA | -0.0809
TACTTCAA | 0.0283
CCTACCTC | 0.125
CTATATTA | 0.161
CCCATAGC | -0.23
ATGACCCA | 0.397
CCAAATTC | 0.14

Sequence | PBM E-score
AGGGGACA | 0.0162
CCCTGGAG | 0.0729
ATTGTAGG | 0.234
ATACGTAC | -0.00929
AAGAAGTG | -0.138
ATTACAGA | 0.158
CGTTCATC | 0.00105
CAAGGTAC | 0.357
CATGTCTC | -0.158
CGATAAGA | -0.0114
CAACGTAA | 0.00769
ATAATTGC | -0.0517
CGTCTGAG | -0.149
GGTGGCAA | -0.113
AGAGTTGG | -0.232
CTAAACCA | 0.104
ATATCATC | -0.031
ACGGATTA | -0.195
AATGTGAA | 0.113
TCGTACCA | 0.149
ACTGCGCT | -0.191
CCAGTCTC | -0.22
CCACCACG | 0.123
GCCAAGCC | -0.181
AACCTCAC | 0.244

Sequence | PBM E-score
CCTAGAAG | 0.0494
CTGAATTC | -0.0926
ACTCTGGA | 0.152
AGGCTTCA | -0.377
ATGTTCCA | 0.028
ACTGGAGG | 0.0644
GCCGCGCC | -0.0853
GCTACCAA | 0.136
AGATAGTG | 0.0442
GCGTTGCA | -0.0961
AAAGCCTG | -0.193
TAGGCCTA | 0.117
GCCTCGAA | 0.101
ATAGGGAC | -0.0311
GTTCGCTA | -0.06
ATTCATGC | -0.163
AGCAACGA | 0.0254
ACCCTGAA | 0.399
GATACGCA | 0.0615
GAGCAGGA | 0.00517
GGGGCACA | -0.0626
GGCAAGAA | -0.0674
ACACAGTG | -0.157
TAAGAACA | 0.224
GTTCTTTA | 0.135

Sequence | PBM E-score
GATCAACC | -0.0383
ATTGAGGA | -0.00619
AAGGGTGG | 0.19
ATATATAG | 0.114
AGCCACCA | -0.135
ACGTATGC | -0.163
TCTAATAA | 0.158
AATGATGA | 0.0609
CTGGGATA | -0.0065
AGAATTTA | -0.129
TCGTTTAA | 0.108
TCGCGACA | 0.0398
CCAGGGGA | -0.0512
CTTACCGA | 0.00642
AAGCATGA | -0.0767
TCGCAAAA | -0.159
GGCGATAC | -0.237
TCGCTCAA | 0.126
ACGCGCCA | -0.135
AGTCAAGC | -0.199
CGATGGTA | 0.157
CAAAGGAC | -0.139
ATTTTTAA | 0.227
GCAACACC | 0.00095
CCACCCAA | -0.0177

Sequence | PBM E-score
AATAACGG | 0.169
GACGATGC | -0.171
TCGCGAGA | 0.117
AGCTACGG | -0.14
ATAAGGAG | -0.0355
CTCCTGTC | 0.00203
GCCGTTAC | 0.068
CTCCATCA | -0.222
GGTGGCAC | 0.00539
AATGGGCA | -0.104
CGAAACCG | 0.0622
GCCACAGA | -0.281
CAACTATC | 0.0235
AAAAATGA | 0.00224
CTGTGCAC | -0.0626
CAACAAGG | 0.248
CCGTCCAC | -0.114
AGGTTATC | 0.463
TCCTGAAA | 0.0825
AATGAAAA | 0.0893
ACTGTCGG | -0.252
AATGGTGG | -0.078
AGACTGTA | -0.103
ATCACGTC | -0.252
GTGGCGCA | -0.0557

Sequence | PBM E-score
CTACGATA | 0.11
GCGTCGGA | -0.0408
CCTATTCC | -0.0321
ATAAAAGA | -0.00372
GCTCTAAA | -0.028
AGATCGGG | -0.202
ACAAAGCC | 0.072
AGGTTCGA | -0.0741
AATGATTG | -0.0873
ATGTCAAC | -0.114
AGGATCCG | -0.224
TAAACACA | 0.0468
GGGTGACA | 0.252
TCCAGCAA | -0.106
AGTCGGAA | -0.0728
AGCAGAAT | 0.0481
CGGTTTAG | 0.0251
ATGAATAA | 0.0541
AGGGAACT | 0.0955
GCTATGGA | -0.0408
GACGGACC | 0.139
CGCGCATC | -0.114
CAAGGGCG | -0.136
ATCTGGGA | -0.121
CTCCTTCC | -0.249

Sequence | PBM E-score
ACGCAGAT | -0.128
CAAGATTC | -0.0578
ATATATGC | -0.01
GAATCAGA | 0.0557
AGATAGAC | -0.098
CTGCTTGA | -0.172
ACGCTTGG | -0.0987
AGCTAACT | -0.0554
ACAGTATC | -0.00884
GAGGAATA | 0.046
ATCCCGAG | -0.15
ATTAGGCC | -0.013
CATGTTAA | 0.139
GCCGCGAC | 0.0853
AATCATCG | -0.132
GGGCGACA | -0.209
TAGAATGA | 0.0391
ACCAGTCC | -0.232
ACTTTTTG | 0.248
GTACTACA | 0.24
AGCTACTA | 0.00657
GACTTATC | -0.211
